61 compounds from PubChem BioAssay AID485344 (National Center for Advancing Translational Sciences (NCATS), 2010) can be followed below.

Several values for one entry are separate records, joined by “and”; a condition that tells them apart may be missing. Equal entries are not always repeated. Among all 340,000 compounds or so, about 6,900 (2%) were called active. Rule as the data show it: active = inhibition above about 30%; inactive = below that, where a call was filed. The entries are a selection whose mix differs from that of the whole data set. Entries without a call were filed so in the source.

The target in the assay is D(2) dopamine receptor (Homo sapiens) (UniProt P14416). Put plainly: HTS Assay for Allosteric Antagonists of the Human D2 Dopamine Receptor: Primary Screen for Antagonists. Also: 0% is about no effect. Conditions: HEK293 TREx D2 cells, calcium flux, dopamine EC80; at 10 µM; stronger effect = higher value. The method, boiled down: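 Antagonism is scored as inhibition of an EC80 dopamine-evoked calcium signal in a force-coupled, tetracycline-inducible HEK293 T-REx D2 line, with compound present 180 s before agonist.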
UniProt P14416, sequence (P14416 whole entry, looked up): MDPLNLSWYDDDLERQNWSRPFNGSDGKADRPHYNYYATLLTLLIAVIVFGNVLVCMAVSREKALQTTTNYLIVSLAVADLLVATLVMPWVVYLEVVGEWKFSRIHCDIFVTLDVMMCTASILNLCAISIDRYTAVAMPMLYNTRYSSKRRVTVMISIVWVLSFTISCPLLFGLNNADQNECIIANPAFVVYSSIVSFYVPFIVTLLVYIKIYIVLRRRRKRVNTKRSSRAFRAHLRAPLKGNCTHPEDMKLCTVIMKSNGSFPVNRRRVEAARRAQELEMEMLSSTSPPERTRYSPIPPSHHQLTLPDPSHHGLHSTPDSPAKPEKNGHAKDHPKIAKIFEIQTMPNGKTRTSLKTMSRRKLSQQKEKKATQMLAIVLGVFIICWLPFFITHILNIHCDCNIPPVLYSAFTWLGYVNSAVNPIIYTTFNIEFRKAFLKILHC
Usually inhibition stands for the change of the read-out against control, counted positive when it falls. Consider `Cc1ccc(NC(=O)c2ccc3c(c2)NC(=O)c2ccccc2S3)c(Cl)c1`, for which the inhibition was found to be 21.6%. The result for `CCOC(=O)c1cccc(NC(=O)Cn2ncc3c(=O)oc4ccccc4c32)c1` reads 1.5%; that for `Cn1c(=O)c2c(nc(SCC(=O)Nc3ccccc3F)n2Cc2ccccc2F)n(C)c1=O`, 18.8%. As to `COc1ccc(CNC(=O)C(=O)NCC(c2ccco2)S(=O)(=O)c2ccc(Cl)cc2)cc1` (stereo unspecified), the inhibition is -15.3%. `CCOC(=O)c1c(C)oc2ncnc(Nc3cccc(C(F)(F)F)c3)c12`: the inhibition worked out at 9.44%. Next, `Cc1ccc(OCC(=O)Nc2ccc(OCc3cc(=O)n4c(C)csc4n3)cc2)cc1C`: 1.29%; `O=c1oc2ccccc2cc1-c1cn2cc(Cc3ccc(F)cc3)sc2n1`: 22.3%.

Regarding `CCc1ccc(NC(=O)CC(NCc2cccnc2)C(=O)O)cc1` (stereo unspecified), the inhibition was -8.42%.

Take `CCOC(=O)c1cc(NC(=O)c2ccc(Cl)cc2)c(=O)n2c1oc1ccc(Cl)cc12`: the inhibition is active: 31.5%. As to `c1ccc(CCN=C2CCCc3c2[nH]c2ccccc32)cc1`, the inhibition was active: 58.1%. Next, `CCOC(=O)c1c(NC(=O)Cc2coc3ccc(CC)cc23)sc2c1CCC2`: -8%. For `CCOc1ccc2nc(N3CCCC(C(=O)NCCc4ccc(Cl)cc4)C3)sc2c1` (stereo unspecified), the inhibition is 5.7%. For the compound `CC(=O)OC1C(N2CCCCC2)c2c(ccc(/C=C/C(=O)N3CCCCC3)c2O)OC1(C)C` (stereo unspecified), the inhibition is active: 30.4%. On to `CC(C)C(=O)Nc1nnc(S(=O)(=O)N2CCc3ccccc32)s1`, for which the inhibition was 11.4%. `Cc1cccc(N2CCN(c3ccc4cc(S(=O)(=O)N5CCC(C)CC5)ccc4n3)CC2)c1C`: the inhibition is 2.55%. Next, `CCOc1ccc(NC(=O)Cn2nc(Cc3cccnc3)c3ccccc3c2=O)cc1`: 4.49%.

On to `COc1ccccc1NC(=O)N1CCN(c2ccc3nnc(-c4ccc(F)cc4)n3n2)CC1`, for which the inhibition was -1.53%.

Consider `COc1ccc(N2CCN(CCCNC(=O)c3c(C)nn(-c4ccc(F)cc4)c3-n3cccc3)CC2)cc1`, for which the inhibition is 15.1%. Next, `COc1ccc(S(=O)(=O)N(CC(=O)NC(C)c2ccccc2)c2ccc(C)cc2)cc1OC` (stereo unspecified): 15.3%. Turning to `CCc1ccc(NC(=O)Cn2nnc(-c3ccccc3N)n2)cc1`, the inhibition was -9.06%. Turning to `COc1ccccc1N1CCN(C(=O)c2cc3c(=O)n(Cc4cccs4)ccc3nc2C)CC1`, the inhibition was -0.734%. The result for `CCOC(=O)N1CCc2c(sc3c2c(=O)n(-c2ccc(CC)cc2)c(=O)n3Cc2ccc(F)cc2Cl)C1` reads 9.62%. In the case of `CCOc1ccccc1-c1noc(CSc2nnc(-c3ccccc3)n2-c2ccc(OC)cc2)n1`, the inhibition was -7.45%. The result for `CN(Cc1nc(-c2ccc(Cl)cc2)no1)S(=O)(=O)c1ccccc1` reads -5.63%.

For the compound `NC(=O)C1C(c2ccccc2)=C1c1ccccc1`, the inhibition is active: 38.4%. The result for `CC(C)c1ccc(C2CC(=O)Nc3cc4c(cc32)OCCO4)cc1` (stereo unspecified) reads 8.9%; that for `Cc1ccccc1Cn1ccn(-c2ccc(F)c(F)c2)c(=O)c1=O`, 24.4%; that for `CCOC(=O)CSc1nc2ccccc2c(=O)n1-c1ccc(C(=O)NCCOC)cc1`, 4.07%.

For the compound `Cc1ccc(N2C(=O)CS(=O)(=O)C23C(=O)Nc2ccccc23)cc1C` (stereo unspecified), the inhibition amounted to 3.67%. The result for `O=C(Nc1ccccc1C(F)(F)F)N1CCOc2ccc(Cl)cc21` reads 9.67%. Next, `Cc1nn(-c2ccccc2)c(OC(=O)c2ccccc2)c1S(=O)(=O)c1ccccc1`: 1.6%.

For `COc1c(Cl)cc(C(=O)Nc2cc(-c3nc4ccccc4[nH]3)ccc2C)cc1Cl`, the inhibition was found to be 1.91%. For `Cc1ccc2oc(C(=O)Nc3c(C(=O)Nc4cccc(Cl)c4)oc4ccccc34)cc(=O)c2c1`, the inhibition amounted to 1.17%. Next, `C/C(CC(=O)Nc1ccc2c(c1)OCCO2)=N\NC(=O)C(=O)Nc1ccccc1C`: active: 32%. Turning to `COc1ccc(N2CCN(C(=O)Nc3cn(CC(C)C)c(=O)c4ccccc34)CC2)cc1`, the inhibition was -2.59%. With `Cc1c(Cl)cccc1NC(=O)c1cc(-c2ccc3c(c2)OCO3)on1`, the inhibition was -14.7%. As for `O=C(NCc1cccs1)c1ccc2c(c1)sc1nc(-c3ccc(F)cc3)cn12`, the inhibition was -10.8%. The result for `O=C(Nc1cc(Cl)ccc1Cl)c1ccc2c(c1)N(Cc1cccc(Cl)c1)C(=O)c1ccccc1S2=O` (stereo unspecified) reads 4.1%; that for `Cc1ccc(Nc2c(-c3ccccn3)nc3ccc(Br)cn23)cc1`, -10.6%. On to `CCC(=O)N1CCc2cc(Br)cc(S(=O)(=O)N3CCCC(C(=O)Nc4ccc(C)c(F)c4)C3)c21` (stereo unspecified), for which the inhibition was -16.1%.

For the compound `Cc1ccc(C(=O)N(Cc2ccc(N(C)C)cc2)CC2CCCO2)cc1` (stereo unspecified), the inhibition was -3.56%. In the case of `Cc1nn(C(C)C(=O)NCc2ccc(OC(C)C)cc2)c(=O)c2c1sc1ccccc12` (stereo unspecified), the inhibition turned out to be 9.55%. Turning to `CCCCNC(=O)CCC(=O)NNc1nc2ccccc2c2nc(C)nn12`, the inhibition was -4.98%. Next, `CC(CCc1ccccc1)NC(=O)CSc1n[nH]c(-c2ccccc2)n1` (stereo unspecified): 12.3%; `Cc1ccc2ccc3cc(C(=O)N4CCN(c5ccccc5F)CC4)nc3c2[nH]1`: 10.3%; `COc1ccccc1NC(=O)c1c(-c2ccc(C)cc2)nnc2ccccc12`: -3.97%. Next, `CCC(=O)N1CCc2cc(S(=O)(=O)NC(Cc3ccccc3)C(=O)NCc3ccccc3)ccc21` (stereo unspecified): 17.6%. Take `CCN(C(=O)CN1C(=O)c2ccccc2Sc2ccc(C(=O)OC)cc21)c1cccc(C)c1`: the inhibition was determined as 26.5%. Next, `CC(=O)c1ccc(NC(=O)CN2CCN(c3ccccc3)CC2)cc1`: active: 36.7%; `CCOC(=O)c1csc(NC(=O)C(C)(C)C)n1`: active: 40.7%.

Take `O=C(N/N=C/c1ccco1)c1cc(-c2ccccc2)nc2ccccc12`: the inhibition was active: 36.9%. The result for `CCCCNc1nc2c(S(=O)(=O)c3ccc(Br)cc3)nnn2c2ccsc12` reads 16.5%. Next, `Cc1ccc(NC(=O)Cn2c(=O)n(Cc3nc(-c4ccccc4)no3)c(=O)c3ccccc32)c(C)c1`: 1.2%. For the compound `O=C(Cn1ncc2c3ccccc3n(Cc3ccccc3)c2c1=O)NCCc1ccc(Cl)cc1`, the inhibition was -5.29%. The result for `COc1ccc(S(=O)(=O)N2CCC(c3nc4ccccc4s3)CC2)cc1OC` reads 2.53%; that for `CCCNC(=O)c1ccc2c(c1)N=C(CCC)c1ccccc1S2`, -1.95%. As to `COc1cccc(NC(=O)Cn2nc(N3CCN(c4ccccc4)CC3)ccc2=O)c1`, the inhibition is -9.3%.

As to `O=C(Cn1nc2c(cc1=O)CCCC2)NCc1ccc(Cl)cc1`, the inhibition was 8.23%. As for `Cc1cccc(CSc2cn(CC(=O)N3CCOCC3)c3ccccc23)c1`, the inhibition was active: 34.8% and -6.94%. As to `CC(=O)NC1CC2CCC(C1)N2Cc1ccc(C)cc1` (stereo unspecified), the inhibition is active: 50.9%.

As to `Cc1cccc(-c2nc(SCc3cc(=O)c4c(C)cc(C)cc4[nH]3)n[nH]2)c1`, the inhibition turned out to be 4.28%.
